# Measured values reported in PubChem BioAssay AID485294 (National Center for Advancing Translational Sciences (NCATS), 2010).
# Hit rate of the full screen: of about 370,000 compounds, about 150 (0.041%) were called active. The shares of active, inactive and inconclusive entries below differ from those in the screen. Calls come from the whole dose curve; as a rule, active = well fitted inhibition curve with a large enough effect; inconclusive = small, poorly fitted or top-dose-only effect; inactive = flat fitted curve, though single readings scatter. Potencies of inconclusive entries are left out as doubtful fits.
# Target: Beta-lactamase (Escherichia coli (strain K12)) (UniProt P00811)
# Sequence of UniProt P00811 (P00811 whole entry, looked up): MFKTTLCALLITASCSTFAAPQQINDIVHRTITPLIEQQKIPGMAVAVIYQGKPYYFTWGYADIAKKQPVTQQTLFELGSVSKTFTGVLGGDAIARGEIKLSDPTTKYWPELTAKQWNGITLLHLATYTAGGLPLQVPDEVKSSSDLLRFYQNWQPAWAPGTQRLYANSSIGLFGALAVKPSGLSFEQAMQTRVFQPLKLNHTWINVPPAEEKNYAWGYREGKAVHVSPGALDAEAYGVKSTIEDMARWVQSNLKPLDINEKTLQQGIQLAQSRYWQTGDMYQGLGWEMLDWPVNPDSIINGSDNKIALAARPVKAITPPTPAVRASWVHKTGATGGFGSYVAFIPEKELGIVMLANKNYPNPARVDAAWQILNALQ
# Assay: qHTS Inhibitors of AmpC Beta-Lactamase (assay with detergent); note: nearly all actives have a fitted effect of over 25% in size
# Details: AmpC hydrolysis of nitrocefin, absorbance 480 nm, 0.01% Triton; series mostly up to 114 µM
# How it was run: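 20 mM phosphate pH 7.0 + 0.01% (detergent screen) or 0.0001% Triton X-100; 5.3 nM AmpC reagent; cpd preinc 15 min RT; nitrocefin (800 uM stock) to start; A480 q20 s × 4 min; Activity was normalised to no-enzyme and no-compound control wells.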
# Potency is the fitted concentration of half-maximal effect; tags give direction and shape of the fitted curve.
row,SMILES,Potency
1,O=C1CN(C(=O)Cc2ccc(F)cc2)C(c2ccccc2)c2cc(Br)ccc2N1 (stereo not drawn),"inconclusive [inhibitor, partial curve, poor fit]"
2,C=CCN1C(=O)c2ccccc2NC1c1ccc(Br)s1 (stereo not drawn),"inconclusive [inhibitor, full curve, poor fit]"
3,O=C(NCCCO)/C(=C\c1ccco1)NC(=O)c1ccc(Br)o1,"inconclusive [inhibitor, partial curve, poor fit]"
4,O=C(Nc1ccc(C(=O)c2ccccc2)cc1)c1ccccc1,inactive
5,CCn1c(=O)cc(OCC(=O)O)c2ccccc21,inactive
6,CC(C)NC(=O)CCCc1ccccc1,"inconclusive [inhibitor, partial curve, poor fit]"
7,COC(=O)c1cnn(-c2ccc(C(=O)Nc3cccc(C(C)=O)c3)cc2)c1N,"inconclusive [inhibitor, full curve, poor fit]"
8,CC(C)(C)n1cnc2cc(NC(=O)c3cccs3)ccc21,"inconclusive [inhibitor, partial curve, poor fit]"
9,CCCCN(CC)CCNC(=O)Cn1cnc2sc(C)c(S(=O)(=O)N3CCC(C)CC3)c2c1=O,"inconclusive [inhibitor, full curve, poor fit]"
10,Cc1ccc2cccc(Oc3nnnn3-c3ccccc3)c2n1,"inconclusive [inhibitor, full curve, poor fit]"
11,Oc1ccc(-[n+]2c(-c3ccccc3)cc(-c3ccccc3)cc2-c2ccccc2)cc1,"inconclusive [inhibitor, single point]"
12,O=C(Nc1cccc(S(=O)(=O)N2CCOCC2)c1)C1COc2ccccc2O1 (stereo not drawn),"inconclusive [inhibitor, single point]"
13,O=C(O)c1ccc(/C=N/NC(=O)c2cc(-c3cccs3)nc3ccccc23)cc1,"inconclusive [inhibitor, partial curve, poor fit]"
14,COCCN(CC(=O)NCC1CCCO1)C(=O)CCC(=O)Nc1ccccn1 (stereo not drawn),"inconclusive [inhibitor, full curve, poor fit]"
15,C=CCSc1nc2sc3c(c2c(=O)n1-c1ccc(C)cc1)CCN(C)C3,inactive
16,O=C(NCCCNCc1ccccc1)c1ccncc1,"inconclusive [inhibitor, full curve, poor fit]"
17,CCOC(=O)N/N=C/c1ccc(N2CCOCC2)s1,"inconclusive [inhibitor, full curve, poor fit]"
18,COc1ccc(C(=O)N/C(=C\c2cccc3ccccc23)C(=O)N2CCN(C)CC2)cc1,"inconclusive [inhibitor, full curve]"
19,O=C(Nc1nc2ccccc2s1)C1CCCO1 (stereo not drawn),inactive
20,O=c1c(Br)c(N2CCOCC2)cnn1-c1ccccc1,"inconclusive [inhibitor, single point]"
21,COc1cc(/C=N/NC(=O)c2ccccn2)ccc1OC(=O)c1ccccc1Br,"inconclusive [inhibitor, full curve, poor fit]"
22,Cc1cc(C)cc(OCCn2c(C3CC(=O)N(c4ccccc4Cl)C3)nc3ccccc32)c1 (stereo not drawn),inactive
23,Cc1cc(Oc2cnn(C(C)(C)C)c(=O)c2Cl)cc(C(C)C)c1,inactive

row,SMILES,Potency
1,COc1ccc(CNC(=O)COc2ccc(S(=O)(=O)N3CCCCC3)cc2Cl)cc1,inactive
2,COc1ccccc1NC(=O)c1cc[n+]([O-])cc1,"inconclusive [inhibitor, full curve, poor fit]"
3,COc1ccc(-n2nc(C(=O)NCC(=O)N3CCCCCC3)c3ccccc3c2=O)c(OC)c1,inactive
4,CCOC(=O)c1sc(=NC(=O)/C=C/c2ccccc2)n(C)c1C,"inconclusive [inhibitor, full curve, poor fit]"
5,O=C(Nc1cccnc1)c1ccccc1-c1nc(-c2ccccc2F)no1,"inconclusive [inhibitor, full curve, poor fit]"
6,CC1=C(C)C(C)=C(C#N)C(=C(C#N)C#N)N1,inactive
7,COc1cccc(/C=N/c2sc(Cc3ccccc3)c(C)c2C(N)=O)c1O,"inconclusive [inhibitor, full curve]"
8,COc1cc(C(=O)N2CCc3ccccc32)ccc1OCc1c(C)noc1C,inactive
9,Cc1csc(NC(=O)CSc2nnc3c4ccccc4nc(C(C)(C)C)n23)n1,"inconclusive [inhibitor, partial curve, poor fit]"
10,COc1cccc(-c2cc(C(=O)NC3CC3)c3ccccc3n2)c1,inactive
11,O=C(Cn1c(=O)ccn(Cc2ccccc2)c1=O)Nc1cccc(S(=O)(=O)N2CCOCC2)c1,inactive
12,CCCCCCCCCC(=O)N/N=C(\C)c1cccnc1,"inconclusive [inhibitor, full curve, poor fit]"
13,CCCNC(=O)c1cc2nc(-c3ccc(Br)cc3)cc(C(F)(F)F)n2n1,inactive
14,O=C(NC(=S)N1CCCCC1c1cccnc1)c1ccccc1 (stereo not drawn),"inconclusive [inhibitor, partial curve, poor fit]"
15,COc1cccc(/C=C/C(=O)c2cccc([N+](=O)[O-])c2)c1OC,inactive
16,Nc1ccc(S(=O)(=O)N2CCCCC2c2cccnc2)cc1 (stereo not drawn),"inconclusive [inhibitor, full curve]"
17,C=C(C)C1CC=C(CN2CCC(O)CC2)CC1 (stereo not drawn),"inconclusive [inhibitor, full curve, poor fit]"
18,Cc1ccc2c(c1)c1c(c(=O)n(-c3cccc(Cl)c3)c(=O)n1CC(=O)N1CCCC1)n2C,inactive
19,COC(=O)CCN1CCc2cc(N=Nc3ccc([N+](=O)[O-])cc3)ccc21,inactive
20,COc1ccc(C(=O)N2CCC(C(=O)Nc3cccc(C)c3)CC2)cc1OC,"inconclusive [inhibitor, partial curve]"
21,COc1cccc(C(=O)Nc2ccc(NC(=O)c3ccco3)nc2)c1,"inconclusive [inhibitor, full curve, poor fit]"
22,COc1cc(C2c3c(oc4cc(C)c(C)cc4c3=O)C(=O)N2CCCN2CCOCC2)ccc1O (stereo not drawn),inactive
23,O=C(O)c1cc2nc3c(c(C(F)(F)F)n2n1)CCc1ccccc1-3,"inconclusive [inhibitor, partial curve, poor fit]"

row,SMILES,Potency
1,CCOC(=O)c1cc(S(=O)(=O)Nc2ccc(Br)c(C)c2)[nH]n1,inactive
2,CCOc1ccc(CCNC(=O)COn2nnc3ccc(S(=O)(=O)N4CCOCC4)cc32)cc1OCC,"inconclusive [inhibitor, partial curve, poor fit]"
3,Cc1ccc(Nc2nc(N)nc(COC(=O)c3ccc(Br)o3)n2)cc1,"inconclusive [inhibitor, full curve, poor fit]"
4,COCCn1c(C)cc(C(=O)COC(=O)c2ccc(NC(=O)CC#N)cc2)c1C,inactive
5,Cc1c(C)n(CC(O)CN(CCO)CCO)c2ccccc12 (stereo not drawn),"inconclusive [inhibitor, single point]"
6,Cc1cc(C)cc(-n2c(C)c3c(C)nnc(C)c3c2C)c1,"inconclusive [inhibitor, full curve, poor fit]"
7,CC1CCN(C(=O)Cn2nnc(-c3ccc([N+](=O)[O-])cc3)n2)CC1,"inconclusive [inhibitor, single point]"
8,O=C1c2ccccc2C(=O)N1CN(C(=O)COc1ccccc1)c1ccc(F)cc1,"inconclusive [inhibitor, full curve, poor fit]"
9,COc1cc(CNCc2ccncc2)cc(Br)c1OCc1ccccc1F,"inconclusive [inhibitor, single point]"
10,CCN(CC)C(=O)c1ccc2c(=O)n(Cc3ccc4c(c3)OCO4)c(=S)[nH]c2c1,inactive
11,COc1ccc(-n2c(=O)cc(N3CC(C)OC(C)C3)[nH]c2=O)cc1 (stereo not drawn),"inconclusive [inhibitor, single point]"
12,O=S(=O)(NCC(c1cccnc1)N1CCN(c2ccc(F)cc2)CC1)c1ccc(F)cc1 (stereo not drawn),"inconclusive [inhibitor, partial curve]"
13,O=C(/C=C/c1ccccc1)N/C(=C/c1ccccc1)C(=O)Nc1ccc(C(=O)O)cc1,"inconclusive [inhibitor, full curve, poor fit]"
14,Cc1cccc(N2CC(O)(c3cccs3)[N+]3=C2CCCCC3)c1 (stereo not drawn),"inconclusive [inhibitor, full curve]"
15,Cc1cc2nsnc2c(S(=O)(=O)NCC(=O)O)c1C,"inconclusive [inhibitor, full curve, poor fit]"
16,O=C(Cn1nc(-c2ccco2)ccc1=O)Nc1ccc(Br)cc1,"inconclusive [inhibitor, full curve, poor fit]"
17,CCCCOC(=O)c1ccc(OC(=O)c2cccnc2)cc1,inactive
18,O=C(O)c1cc(-c2cc(C(=O)O)c3ccccc3n2)nc2ccccc12,inactive
19,COc1ccccc1C1CCN(c2ccc(CO)cc2[N+](=O)[O-])CC1,inactive
20,CS(=O)(=O)c1ccc(C(=O)OCC(=O)NC(=O)C2CCCCC2)cc1[N+](=O)[O-],"inconclusive [inhibitor, full curve, poor fit]"
21,O=C(COc1ccc(S(=O)(=O)NC2CCCCC2)cc1)NCCC1=CCCCC1,"inconclusive [inhibitor, partial curve]"
22,CC1(C)NC(=O)N(CC(=O)OCC(=O)c2ccc(F)cc2)C1=O,"inconclusive [inhibitor, full curve, poor fit]"
